# Test results published in publication PMC10668032.
# The list shows a part of the results. At the low end of the ranking the order means little.
# Molecular target: SIX1-Q177R homeodomain (UniProt Q15475)
# Assay: universal protein binding microarray
# Conditions: Universal all-10-mer PBM (8x60K, AMADID 030236), 300 nM GST-tagged protein, Alexa Fluor 488 anti-GST; buffer, salt, pH and temperature not stated; high values mean tight binding; most listed sequences are background and not binding sites; double strand, one strand shown
row,Sequence,binding signal [E-score]
1,CTGTTATA,0.101
2,AAGGCCCG,-0.183
3,AAGGTACC,-0.088
4,AACTCTCC,0.05
5,CCCCTAAC,0.119
6,CGCCAATA,-0.165
7,ATTGGTCA,-0.108
8,AAGTATAA,-0.125
9,ATGGGTGC,0.154
10,ATGTGTAG,0.183
11,AAAGTAGC,-0.295
12,CCAGTGTA,0.43
13,CCCCTCGA,0.23
14,GCAATTTA,0.0881
15,GTATTCAA,-0.224
16,CTGCGGCA,-0.216
17,ATTTAGAG,-0.207
18,CTGGAGGA,0.0622
19,CTTTCTGA,-0.134
20,GGAATGAC,-0.0375
21,ACGGTTAA,-0.118
22,GGCGCCAC,-0.264
23,AGATGTTA,0.0532
24,CGGGAATC,-0.0647
25,AGGGGCCC,-0.178

row,Sequence,binding signal [E-score]
1,CGCTCTCC,-0.0921
2,ACGGCTTC,-0.134
3,ATCATCGG,0.103
4,GCCTTTTA,-0.0871
5,GCCTAATA,-0.0811
6,CATCGACG,-0.117
7,ATTCAGCA,-0.18
8,CGTCACTC,-0.0479
9,AACGCTAT,-0.0745
10,AGATTGGG,-0.106
11,CTGTTCCA,-0.145
12,CGCATCAC,-0.0719
13,CTTACGGC,-0.158
14,AGAGCACT,0.119
15,CGCCATAG,0.0554
16,AGGACAAG,-0.108
17,GCGACACA,0.262
18,AGACAGAG,-0.0243
19,AGGGAACT,-0.0202
20,GATTAGAC,-0.183
21,GCTCGCCA,-0.0614
22,AAAAGCCG,-0.161
23,GTTGAATA,-0.251
24,ACATAGTG,0.19
25,AGACCAAC,-0.0576

row,Sequence,binding signal [E-score]
1,AGAACTCG,-0.119
2,GCCGAAAA,-0.169
3,CGTCCGCC,0.0484
4,AGTCGTCC,0.0144
5,CCGGATAG,-0.0776
6,CGAGCCAC,0.00089
7,TCATCGAA,-0.104
8,AAATCTCG,-0.392
9,GCTGCGCC,-0.163
10,AGTAGGTG,0.279
11,CGGAGGTA,-0.0437
12,CCGCCGAG,0.0251
13,AGGGGAAC,-0.117
14,CGAGGCGC,-0.0431
15,CTTCTTGC,-0.0263
16,CGGAGATA,0.034
17,GGCAAGAA,-0.00789
18,GTCGCTTA,-0.0343
19,GGCCTCAA,-0.144
20,AGGCGTGC,0.00865
21,ACCTATCG,0.0908
22,GTGCCATA,0.0428
23,AATGCTCC,-0.305
24,GTACCCCA,0.247
25,CGCTCCCA,-0.235

row,Sequence,binding signal [E-score]
1,CTACAATC,0.0458
2,AACCCGTC,-0.0703
3,AACTCGAG,0.0251
4,GAGTAAGC,0.00498
5,TACGCGAA,-0.0633
6,AGGACGCC,0.0898
7,GAGTGCGA,-0.0521
8,ACAACAAA,-0.102
9,GACTCCAA,0.139
10,ACTCGTTC,0.0393
11,CGGTCGAA,-0.107
12,CATGCCCA,-0.33
13,ACCTGCAA,-0.128
14,GTGGCAGA,-0.16
15,CAAGGCAC,-0.192
16,GCTACAGA,-0.176
17,GCGATTAA,-0.0681
18,AACCTTAC,0.0365
19,ACCCGGGC,0.199
20,CGCCGTTC,0.0524
21,GTGTACAC,0.474
22,TATCTAAA,0.0642
23,AATTGATA,-0.177
24,GAACTGAA,-0.155
25,CACCCATG,0.34

row,Sequence,binding signal [E-score]
1,CGAGTTTA,-0.0171
2,AACAACCT,-0.194
3,CGTCGTTA,-0.00483
4,ACTGTCCC,-0.063
5,CAACACAC,0.342
6,AAGGTAGA,0.049
7,CTCACACA,0.0797
8,GATGTGCC,-0.26
9,ATTCCAGG,-0.0187
10,ACCAAGCC,-0.0717
11,AGTGGTCG,0.0862
12,GACCCGAC,0.193
13,CCCACAAC,0.0367
14,AGATTACC,-0.0927
15,AATTGTGT,0.137
16,ACTTGTCG,-0.142
17,ATTCATCG,-0.147
18,GATACTCA,0.16
19,GAGTCTTA,-0.0743
20,GTACCGAC,-0.0434
21,CGCGCAAG,-0.0893
22,GGACGAAA,-0.106
23,AGATGGCT,-0.245
24,CGTTCTAC,0.125
25,CACATATA,0.0466

row,Sequence,binding signal [E-score]
1,CTCTACCC,0.105
2,CACCTTAA,0.172
3,GGCAACGA,-0.0235
4,CGAAGTTA,-0.205
5,ATTTACGA,-0.0623
6,ATCGGAGC,-0.196
7,ACGTGGCC,-0.198
8,CGTAGGAG,-0.146
9,AGCTAACA,0.0706
10,GCCGATCC,0.19
11,ATCTGCTC,-0.0557
12,CGGCACAA,0.149
13,GTTCTCTA,-0.0731
14,ACTTGTCC,-0.203
15,AAAGTACT,0.00101
16,ACTCCAAC,0.121
17,CCCCATCG,0.107
18,GGCTTACA,0.12
19,TAGCATCA,-0.147
20,CCTGTCGA,-0.0833
21,GCAAGGAA,-0.161
22,ACTTGCTA,-0.0699
23,ACTGAGGA,-0.057
24,ACATGAGT,0.0219
25,AACTTCAT,-0.148

row,Sequence,binding signal [E-score]
1,TACAGGCA,-0.0814
2,GGCATAGA,-0.0128
3,GTGGACCA,-0.00241
4,CTTCCGAA,0.0705
5,GTCGTACA,0.26
6,CGACAGCC,-0.323
7,CACGTCCG,0.0459
8,CTGTAATC,-0.192
9,CCTTGGGC,-0.16
10,ACTATCTG,-0.0702
11,TCCGAACA,-0.0175
12,AGTTGCGA,0.01
13,GACTTCTA,-0.202
14,ACCGCGGA,0.142
15,CGAAGACA,0.0961
16,AACAGGTG,0.327
17,ATCCTAGA,-0.0765
18,AGCTGGTC,-0.211
19,AAGAAATC,-0.281
20,GTCGTCTA,-0.0906
21,GGATCATA,0.184
22,CCTTCGTA,-0.191
23,AATTTTTA,-0.0654
24,TAACATGA,-0.2
25,ATGGGCTC,0.0646

row,Sequence,binding signal [E-score]
1,CATATGGA,0.116
2,AAGCTGGT,-0.114
3,ATGATGTC,-0.0172
4,GGAGCGCC,-0.132
5,CCACATAA,0.00032
6,AGTTCCCC,-0.0965
7,CACTTGTC,0.161
8,TAGCACCA,0.224
9,CAGTTTGA,-0.105
10,AGTGCGTC,-0.105
11,CTGGTGAA,-0.0336
12,CCTTTCAC,-0.158
13,GACCATCA,-0.103
14,AAAAAGTT,-0.073
15,CCAATTAG,-0.0478
16,AGTATCCA,0.146
17,GCGGTACC,-0.0496
18,AGGCATAG,-0.129
19,CGTCTAGC,-0.082
20,ACGCGGAA,0.0707
21,CAGTGGTC,-0.148
22,AGAATTAG,-0.128
23,AAGCGCCG,-0.27
24,ACTGATAG,0.0532
25,TAAACAAA,-0.194

row,Sequence,binding signal [E-score]
1,CTACGAGC,0.0139
2,AACTCATC,-0.227
3,ATGCGGGA,0.00549
4,CTAGAACC,-0.0872
5,GCTGCCAA,-0.141
6,AGTTTCAG,-0.162
7,ACAACTAT,-0.14
8,AGTCTCGG,-0.00434
9,ACAATTAT,-0.152
10,AAGGGGGC,0.0712
11,ACAGTATG,-0.15
12,ATGTGAGG,0.0472
13,CTTCTCTA,-0.157
14,AAACGGTA,-0.116
15,ATGGCGTG,0.0502
16,AGATTTCA,-0.0603
17,CAGGAGGC,-0.335
18,AGACGACA,0.0584
19,AGTTTATG,-0.186
